Variants at the floor of the assay are shown more often than the library holds them.
B1: TPR 5TU (parent)
chain: GGAUCUUCUCGAUCUAACAAAAAAGACAAAUCUGCCACAAAGCUUGAGAGCAUCUUCGGAUGCAGAGGCGGCAGCCUUCGGUGGCGCGAUAGCGCCAACGUUCUCAACUAUGACACGCAAAACGCGUGCUCCGUUGAAUGGAGUUUAUCAUG

Variants of: B1
Assay: polymerase ribozyme fitness, log enrichment relative to wild type (log ratio); higher = more active; in vitro selection for triplet polymerase activity
Procedure, shortened: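 Each subunit of a heterodimeric triplet polymerase ribozyme was mutagenized into a library by PCR, transcribed, and subjected to one round of in vitro selection, run in triplicate. Libraries were annealed with a biotinylated primer, the partner subunit and triplets, incubated frozen at −7 °C, and extended constructs were gel-excised, captured on streptavidin beads and recovered by RT-PCR. Input and output libraries were sequenced on Illumina, keeping genotypes with ≥10 input reads and ≥1 read per output. Fitness is log base 2 of genotype enrichment divided by wild-type enrichment, from inverse-variance-weighted replicate averages.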

Polymerase ribozyme fitness (log ratio), -2.68:
GGAUCUUCUCGAUCUAACAAAAAAGUCAAAUCUGCCACAAAGCUUGAGAGCAUCUUCGGAUGCAGAGGCGGCAGCCUUCGGUGGAGCGAUAGCGCCAACGUUCUCAACUAUGACACGCAAAACGCGUGCUCCGUUGAAUGGAGUUUAUCAUG [A26U C85A]

Polymerase ribozyme fitness (log ratio), -1.74:
GGAUCUUCUCGAUCUAACAAAAAAGUCAAAUCUGCCACAAAGCUUGAGAGCAUCUUCGGAUGCAGAGGCGGCAGCCUUCGGUGGCGUGAUAGCGCCAACGUUCUCAACUAUGACACGCAAAACGCGUGCUCCGUUGAAUGGAGUUUAUCAUG [A26U C87U]

Polymerase ribozyme fitness (log ratio), -1.58:
GGAUCUUCUCGAUCUAACAAAAAAGUCAAAUCUGCCACAAAGCUUGAGAGCAACUUCGGAUGCAGAGGCGGCAGCCUUCGGUGGCGCGAUAGCGCCAACGUUCUCAACUAUGACACGCAAAACGCGUGCUCCGUUGAAUGGAGUUUAUCAUG [A26U U53A]

Polymerase ribozyme fitness (log ratio), ≤ -4.2:
GGAUCUUCUCGAUCUAACAAAAAAGUCAAAUCUGCCACAAAGCUUGAGAGCAUCUUCGGAUGCAGAGGCGGCAGCCUUCGGUGGCGCGAUAGCGCCAACGUUCUCAACUAUGACACGCAAAACGCGUGCUCCGUUGAAUCGAGUUUAUCAUG [A26U G140C]
GGAUCUUCUCGAUCUAACAAAAAAGUCAAAUCUGCCACAAACCUCGAGAGCAUCUUCGGAUGCAGAGGCGGCAGCCUUCGGUGGCGCGAUAGCGCCAACGUUCUCAACUAUGACACGCAAAACGCGUGCUCCGUUGAAUGGAGUUUAUCAUG [A26U G42C U45C]
GGAUCUUCUCGAUCUAACAAAAAAGUCAAAUCUGCCACAAAGCUUUAGAGCAUCUUCAGAUGCAGAGGCGGCUGCCUUCGGUGGGGCGAUAGCGCCAACGUUCUCAACUAGGACACGCAAAACGCGUGCUCCGUUGAAUGGAGUUUAUCAUG [A26U G46U G58A A73U C85G U111G]
GGAUCUUCUCGAUCUAACAAAAAAGUCAAAUCUGCCACAAAGCAUGAGAGCAUCUUCGGAUGCAGAGGCGGCAGCCUUCGGUGGCGCGAUAGGGCCAACGUUCUCAACUAUGACACGCAAAACGUGUGCUCCGUUGAAUGGAGUUUAUCAUG [A26U U44A C93G C125U]
GGAUCUUCUCGAUCUAACAAAAAAGUCAAAUCUGCCACAAAGCUUGAGAGCAUCUUCGGAUGCAGAGGCGGCAGCCUUCGGUGGCGCGAUAGCGCCAACGUUCUCAACUAUGACACGCAAAACGCGUGCUCGGUUGAAUGGAGUUUAUCAUG [A26U C132G]
GGAUCUUCUCGAUCUAACAAAAAAGUCAAAGCUGCCACAAACCUUGAGAGCAUCUUCGGAUGCAGAGGCGGCAGCCUUCGGUGGCGCGAUAGGGCCAACGUUCUCAACUAUGACACGCAAAACGCGUGCUCCGUUGGAUGGAGUUUAUCAUG [A26U U31G G42C C93G A137G]
GGAUCUUCUCGAUCUAACAAAAAAGUCAAACCUGCCACUAAGCUUGAGAGCAUCUUCGGAUGCAGAGGCGGCAGCCUUCGGUGGCGCGACAGCGCCAACGUUCUCAACUAUGACACGCAAAACGCGUGCUCCGUUGAAUGGAGUUUAUCAUG [A26U U31C A39U U90C]
GGAUCUUCUCGAUCUAACAAAAAAGUCAAAUCUGCCACAAAGCAUGAGAGCAUCUACGGAUGCAGAGGCGGCAGCCUUCAGUGGCGGGAUAGCGCCGACGUUCUCAACUAUGACACGCAAAACGCGUGCUCCGUUGAAUGGAGUUUAUCAUA [A26U U44A U56A G80A C87G A97G G152A]
GGAUCUUCUCGAUCUAACAAAAAAGUCAAAUCUGCCACAAAGCUUGAGAGCAUCUUCGGAUGCAGAGGCGGCAGACUUCGGUGGCGCGAUUGCGCCAACGUUCUCAACUUUGACACGCAAAACGCGUGCUCCGUUUAAUGGAGUUUAUCAUG [A26U C75A A91U A110U G136U]
GGAUCUUCUCGAUCUAACAAAAAAGUCAAAUCUGCCACAAAGCUUGAGAGCAUCUUCGGAUGCAGAGGCGGCAGCCUUGGGUGGCGCGAUAGCGCCAACGUUAUCAACUAUGACACGCAAAACGCGUGCUCCGUUGAAUGGAGUUUAUAAUG [A26U C79G C103A C149A]
GGAUCUUCUCGAUCUAACAAAAAAGUCAAAUCAGCCACAAAGCUUGAGAGCAUCUUCGGAUGCAGAGGCGGCAGCCUUCGAUGGCGCGAUAGCGCCAACGUUCUCAACUCUGACACGCAAAACGCGUGCUCCUUUGAAUGGAGUUUAUCAUG [A26U U33A G81A A110C G133U]
GGAUCUUCUCGAUCUAACAAAAAAGUCAAAUCUGCCACAAAGCUUGAGAGCAUCUUCGGAUGCAGAGGCGCCAGCCUUCGGUGGCUCGAUAGCGCCAACGUUCUCAACGAUGACACGCAAAACGCGUGCUCCGUUGAAUGGAGUUUAUCAUG [A26U G71C G86U U109G]
GGAUCUUCUCGAUCUAACAAAAAAGUCAAAUCUUCCACAAAGCUUGAGAGCAUCUUCGGAUGCAGAGGCGGCUGCCUUCGGUGGCGCGAUUGCGCCAACGUUCUCAACUAUGACACGCAAAACGCGUGCUCCGUUGAAUGGAGUUUAUCAUG [A26U G34U A73U A91U]
GGAUCUUCUCGAUCUAACAAAAAAGUCAAAUCUGCCACAAAGCAUGAGAGCAUCUUCGGAAGCAGAGGCGGCAGCCUUCGGUGGCGCGAUAGCGCCAACGUUCUCAACUAUGACAUGCAAAACGCGUGCUCCGUUGAAUGGAGUUUAUCAUG [A26U U44A U61A C116U]
GGAUCUUCUCGAUCUAACAAAAAAGUCAAAUCUGCCACAAAGCUAGAGAGCAUCUUCGGAUGCAGAGGCGGCAGCCUUCGGUGGGGCGAUAGCGCCAACGUUCUCAACUAUGACACGCAAAACGCGUGCUCCGUUGAAUGGAGUUUAUCAGG [A26U U45A C85G U151G]
GGAUCUUCUCGAUCUAACAAAAAAGUCAAAUCUGCCACAAAGCUUGAGAGCAUCUUCGGAUGCAGAGGCGGCAGCCUUCGGUGGGGCGAUAGCGCCAACGUUCUCAACUAUGGCACGCAAAACGCGUGCUCCGUUGAAUGGUGUUUAUCAUG [A26U C85G A113G A142U]

Reference: the RNAGym collection of RNA variant scans (doi:10.1073/pnas.2313332121)
